Tests used:
Assay type in all cases: cell-based, human
[1] = system: GADD153, GADD34 and GADD45alpha proteins in FO-1 cells; test: Western blot of GADD proteins in FO-1 cells; details: Ad.mda-7 100 pfu/cell, 1 μM SB203580, 3 days
Description: (§1) Total RNA was extracted and Northern analysis was performed using the indicated cDNA probes as described in Section 6. […] C.

[2] = system: phospho-p38 MAPK and phospho-HSP27 in FO-1 cells; test: Phosphorylation of p38 MAPK and HSP27 in FO-1 cells (Western blot); details: Ad.mda-7 100 pfu/cell; 1 μM SB203580 or Ad.p38DN 100 pfu/cell, 3 days
[3] = system: GADD family of genes (GADD153, GADD34, GADD45alpha, GADD45gamma) in FO-1 cells; test: Northern blot of GADD family mRNA in FO-1 cells; details: Ad.mda-7 100 pfu/cell, different concentrations for 2 days
Description: as §1
RNA Isolation and Northern Blot Analysis. Total RNA was extracted from the cells using Qiagen RNeasy mini kit (Qiagen) according to the manufacturer's protocol and Northern blotting was performed as described in Su et al., 1997, Proc. Natl. Acad. Sci. USA. 94, 9125-9130. The cDNA probes used were full length human GADD153, full length human GADD45-alpha, beta and gamma, a 500-bp fragment from human GADD34 and full-length human GAPDH.

## C[S+]([O-])c1ccc(-c2nc(-c3ccncc3)c(-c3ccc(F)cc3)[nH]2)cc1 (stereo not shown) [SB203580]
[1]
  Ad.mda-7-mediated induction of GADD153, GADD34 and GADD45alpha proteins: could inhibit
[2]
  Ad.mda-7-induced phosphorylation of HSP27 in presence of p38 MAPK blockade: could be blocked
[3]
  concentration giving maximum inhibition of GADD gene induction: 1 µM
  concentration giving minimum inhibition of GADD gene induction: 0.01 µM

Reference: US20050250127A1, “Methods for identifying modulators of MDA-7 mediated apoptosis” (priority 2002, published 2005)
